According to the supplement of paper PMC10126150:
Sequences with one replicate were seen in a single cluster, so their values are uncertain.

System: ATP
Assay: switch fluorescence ratio, 500 uM ATP over buffer (Cy3 cluster intensity, sum of 5 cycles each) (fold (ratio)); higher = stronger signal-on switching upon ATP binding; sequences stand for … in TCGTCGGCAGCGTCAGATGTGTATAAGAGACAGTTTTTTTTTTTTTTTTTTTTTTTTT…TC
Conditions: aptamer strand: ATP DNA aptamer (quencher-CACCTGGGGGAGTATTGCGGAGGAAGG + anchor), 100 nM annealed; ATP concentration: 500 uM; one replicate
Procedure, shortened: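 Switching-strand clusters labelled with Cy3 on a modified Illumina MiSeq flow-cell were annealed to 100 nM quencher-labelled ATP aptamer, imaged in selection buffer, and re-imaged after 15 min with 500 uM ATP at 22 °C. This was done over five cycles with NaOH stripping and re-annealing in between. The fluorescence ratio is summed target-cycle over summed buffer-cycle Cy3 intensity per cluster, averaged per switch-domain sequence, excluding clusters outside 100-1000 RFU.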
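Note: ATP exposure 15 min at 22 °C before imaging.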

| Sequence | switch fluorescence ratio |
| --- | --- |
| CTGTTTTCAA | 0.938 |
| TCCAAGTAAG | 1.05 |
| ATGTTAGACA | 1.05 |
| TGTTATAGGT | 1.01 |
| AGTTGAGTCA | 0.948 |
| TGCGATGGCT | 1.06 |
| GGTCATTCGG | 0.974 |
| GTTAGGTGCT | 1.04 |
| CATGTAAATT | 0.994 |
| AGGCCTTTGC | 1.01 |
| TCTAGCAGAC | 3.07 |
| TAACTTGTTC | 0.996 |
| TTACAACGTG | 0.976 |
| ATGGTATTGT | 0.987 |
| TCAACTTGAC | 1.12 |
| AAACGACAAG | 1.04 |
| AAGTAGGGAG | 1.03 |
| ATTCAGGGTG | 1.07 |
| TAGCCTGGTT | 0.976 |
| AACAGAGGCC | 1.47 |
| CGATTATAGT | 0.996 |
| AACAATTTCG | 0.987 |
| GACGCGCGCT | 0.988 |

| Sequence | switch fluorescence ratio |
| --- | --- |
| AAGGTTAAAG | 1.01 |
| TGTCATGCAG | 1.01 |
| ATCCCGACCG | 1.11 |
| GGTTGAGCCA | 0.998 |
| AGCACATTTA | 1.04 |
| AAACTTAGGG | 1.01 |
| TTAAATCGAG | 0.999 |
| AAACTCTGCC | 1.51 |
| CTCGATCTAA | 1.01 |
| ATGTACGGCA | 1.02 |
| CGGTGGGAGG | 0.998 |
| TTTCATTTAG | 1.01 |
| TGCTTCGTTC | 1.07 |
| AGGTATTTCG | 0.962 |
| AACATTATT | 1.05 |
| TCGTTGGGT | 1.04 |
| GTGCATGGCG | 1.09 |
| GACTGCCGCC | 1.32 |
| TGCACGCTTA | 1.03 |
| CGGGGTAACT | 1 |
| CTGGTCTGGG | 1 |
| CAGCGGTGT | 1.01 |
| CATTGTCACG | 1.03 |

| Sequence | switch fluorescence ratio |
| --- | --- |
| GGATACTT | 0.997 |
| AACGGCTGAC | 1.13 |
| CCTGCCCACG | 1.43 |
| TCTCTTAAT | 1.02 |
| GATCGTGTCG | 0.988 |
| TTAGAGAGCC | 1.01 |
| CGACTTGTAG | 1.02 |
| CTGGTTCAGC | 1.01 |
| CAATGATTTT | 0.979 |
| ACCGTTTTAA | 1.02 |
| GGACGCGCAT | 1.15 |
| CAATTCTCAA | 1.01 |
| AGAAAAGGCT | 1.4 |
| GGCTTAAT | 1.01 |
| GGTAAATCC | 0.968 |
| CCGTTCGGGC | 1.09 |
| GCATAGAAAT | 0.96 |
| ACTCCAGGGA | 1.6 |
| TCCTGGGCCG | 1.01 |
| GATGGTTCGA | 0.941 |
| CACATCGGAA | 1.06 |
| CAGAAATGGT | 1.02 |
| GTGTGGAGTG | 1.01 |

| Sequence | switch fluorescence ratio |
| --- | --- |
| AGCAGTTGCT | 0.993 |
| CTGCCTAGGG | 1.04 |
| CTATTCGATT | 1.02 |
| ACCCGATAGC | 1.29 |
| CCTGAGCACA | 1.99 |
| CACCTTTAGT | 1.02 |
| GCTCGCATGA | 1.33 |
| GAGGGTAGTA | 1.02 |
| GGTGGTATC | 0.979 |
| ATGTGAACAC | 0.983 |
| AAAGTGTCGG | 1.06 |
| AAGCGCGGTC | 1.06 |
| TGTTGATGCT | 0.957 |
| GTTGTTTGTC | 1.02 |
| AAAACTGTTA | 0.996 |
| ACTTGCATTC | 1.71 |
| GCTGCGGAAG | 1.05 |
| TTCAGAGGGA | 0.955 |
| AGACAATTAC | 1.23 |
| GTTAAGCGTT | 1.01 |
| GGCTGTCCTA | 0.99 |
| CGACGTCTGG | 1.02 |
| TTAGATGTG | 0.979 |

| Sequence | switch fluorescence ratio |
| --- | --- |
| TTGTCGTTGT | 1.01 |
| ATTTGGCTGA | 0.978 |
| TATGCCGGT | 0.998 |
| CCTATCGT | 1.06 |
| CCGTGAGGGA | 1 |
| AGCGCATCAC | 3.46 |
| TGCGGCTGAC | 1.09 |
| ACGGCTCACA | 1.21 |
| GTAAATGCGA | 1.07 |
| TGAGGTGCGC | 1.01 |
| TTTTCTGAG | 0.957 |
| AAAATTACGC | 1.03 |
| GGGGCGAGCG | 0.982 |
| GAGGCCGAGG | 0.968 |
| TGAACTGTGT | 0.996 |
| GGGCGGGAAT | 0.946 |
| TCAGCTAGAT | 1.07 |
| ACTGGGATAT | 1.04 |
| CCACGCGGTA | 1.72 |
| AATGCAGTG | 1.03 |
| AAAACTGCGT | 1.01 |
| GCAACGGCCG | 0.997 |
| GGTAGAGAGC | 1.02 |

| Sequence | switch fluorescence ratio |
| --- | --- |
| GATTCAGCAT | 1.1 |
| GATTTTGCAC | 0.97 |
| TCGTCATATT | 1.03 |
| CATTATTGAA | 1.04 |
| GCAAACGATA | 1.1 |
| TTCCACTGTG | 1.39 |
| ATAACGACTG | 1.46 |
| TCATAGTATA | 0.98 |
| CAACCGTTGG | 0.976 |
| AATTAGGCCG | 0.999 |
| TCGCTAGTCT | 1.02 |
| TCAAGATTCG | 0.939 |
| TCTCTCCTAT | 1.15 |
| CTAGATAAGT | 0.988 |
| TCGGACCTCC | 1.3 |
| GACAAATTAG | 0.98 |
| CTATGGAGCT | 1 |
| TTAGCTAACG | 1.02 |
| GTCCTCGAGT | 1 |
| CATTGGCAC | 1.09 |
| CCTAGCAGGA | 1.23 |
| ATGTGTGCGA | 1.03 |
| TGGTGATCCT | 1.02 |

| Sequence | switch fluorescence ratio |
| --- | --- |
| AACCGGTGGC | 1.07 |
| GTAGGGTAAA | 0.965 |
| ACTGTTTCTA | 0.976 |
| TATATTCTA | 0.985 |
| TCTTGGGCCT | 1.07 |
| ACTCAGTAGC | 1.12 |
| ATACCAGGGC | 1.08 |
| TTTCTACGTG | 1 |
| CCTGAGTTCA | 0.997 |
| TCCATCGCCA | 1.97 |
| GGGGAAAGT | 0.945 |
| AAAACCGGGG | 1.1 |
| AATCATGCT | 0.973 |
| ATATACTAAA | 1.05 |
| GGCGAGCAAC | 1.06 |
| ACCATAGCGG | 1.03 |
| CTGACAGGGG | 0.987 |
| TGATGGTCGT | 1.06 |
| ATTTAATACT | 1.02 |
